The supplement of paper PMC10126150
Sequences with one replicate were seen in a single cluster, so their values are uncertain.

Test system: ATP
Assay: switch fluorescence ratio, 500 uM ATP over buffer (Cy3 cluster intensity, sum of 5 cycles each) (fold (ratio)); higher = stronger signal-on switching upon ATP binding; sequences stand for … in TCGTCGGCAGCGTCAGATGTGTATAAGAGACAGTTTTTTTTTTTTTTTTTTTTTTTTT…TC
Conditions: aptamer strand: ATP DNA aptamer (quencher-CACCTGGGGGAGTATTGCGGAGGAAGG + anchor), 100 nM annealed; ATP concentration: 500 uM; one replicate
Method in brief: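 The fluorescence ratio divides summed target-cycle Cy3 intensity by summed buffer-cycle Cy3 intensity for each cluster and is averaged per switch-domain sequence. Cy3-labelled switching-strand clusters on a modified Illumina MiSeq flow-cell were annealed to 100 nM quencher-labelled ATP aptamer, then imaged in selection buffer and again after 15 min with 500 uM ATP at 22 °C. Five such cycles were run, with NaOH stripping and re-annealing between them, and clusters outside 100-1000 RFU were excluded.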
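Further: ATP exposure 15 min at 22 °C before imaging.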

Sequence	switch fluorescence ratio
CCTGATAT	1.52
TAAGGTCTT	1.07
GATAGGTCA	0.992
TGAAATTACA	1
GCTACCTAA	1.01
CGATAACAGG	2.14
TGCTTCGGTC	1.01
TAAACGCTC	1.03
GGGGGCTCAA	1.03
TAAAGATATA	1
AGTAAGGCG	0.955
TATTCCTGAC	1.91
GACGGGAAGC	1.01
TTACTCCTAG	1.09
TTCCCGGCGA	1.48
TGGTCCGGAT	0.993
GTAACATAGG	0.983
TAAGGCCGCA	1.08
GGTAGGGGC	1.01
TACTCGTTCG	1.09
TTGGCTAGAA	0.999
GGGCCTTCTT	1.04
CCAAGATGTA	0.997
TATCAGGGTG	1.08
CGGTCTGGGC	0.972
AGAACTTCCC	1.22

Sequence	switch fluorescence ratio
AGGGCCGCGT	0.977
GGATCACGGA	1.02
TCTTTTCGCA	1.22
GGTAACTACA	0.961
TTATGATATG	1.01
TCACGCGCTG	0.986
ATACAAGATC	1.02
ACTACACATA	1.35
GGCAGCATGA	0.987
GGGTTGCTT	0.926
TGGCAGATCA	0.99
TTATTTTCGC	1.01
CGTGGGAGA	1.13
TGCGGACTGG	1.06
AATTTGCTCC	1.06
CTACTTCGGT	0.985
GTATAGTGGA	1.02
CAGGCCAGGG	1.03
GTTCCTAGCT	1.04
TCAGATGA	1.06
CGGTGAGCGC	0.975
TATGAATTGC	1.08
CCGTGTACTT	1.66
TCGTGTAAGC	1.08
GAACATAAAC	1.02
GCACTTTGCC	0.973

Sequence	switch fluorescence ratio
TGGTTTTGTC	1.03
TTCCAGAACT	0.987
GGTGGACCGG	1.04
AAGCATGGAT	1
ACCGTTTGCG	0.974
GATTCAACGG	0.99
CTCACAGGAA	1.06
AATTAGAGCT	1.06
AACGCTGTAT	1.04
CGTTATGATC	1.05
ACTGGTGTGC	1.03
CGTACTGTGC	1.07
TTGTGGCTCG	1.06
TTGTGTGCTT	1.01
AGTGGCAGCA	0.948
TCGGCAAGTA	1.02
GAACGCACGG	1.28
GATATAGTCG	0.969
CCTCGCTAGT	3.54
AGGAGTAGCT	0.951
CTGCGCAAAA	3.49
TAATTTACTG	1.13
GGGGATATCC	0.964
AACAATCATG	1.03
GTGGAGGTTT	0.956
CGCAAAAGTA	2.57

Sequence	switch fluorescence ratio
TTGACAATCA	0.972
TCTGGTGCTT	1.04
ATCCCGAATA	1.08
ATACGTAGGA	0.997
GAATTTCAA	0.982
CCTTTTATGG	1.02
TCGGGGTCT	1.03
CAGCACGTCC	1.04
GCGCTTTTTC	1.09
GGGCGTGTAA	1.04
CAGCGGAGTT	0.997
AGATCTCGCC	1.05
AATAACCCGT	1.15
TGCGACGGGA	1.05
ATTTTTTAT	1.01
TCACAGGGGA	1.07
ATTGGGTGAT	0.998
AGGGGATGTA	0.983
GGCTAAGCAT	1.04
AATAGAACCA	1.02
GGTTAGTAGT	0.978
TTGTTGGATG	0.993
CATATTGTGT	0.968
TCCACCTGAT	1.05
GGCCACGGCC	0.986
TGCCACCGCG	1.2

Sequence	switch fluorescence ratio
ACAGTTTTCG	0.98
TAACCTGGGG	1
AGAAACTAGT	1.02
ATTGATGAAT	0.962
ACATTATATT	0.999
TGGGCGCCGC	0.976
CCACGGCGGC	1.35
GATCGAGCCA	1.02
CGGGCGATGA	0.995
AAGTAATCCC	0.995
ATCCATACAC	1.16
TTGGGCCTGT	0.955
GAGTGTCTAT	1
CCTTCTTTT	1.01
AGACCTGGCG	0.959
TTTATCCACA	1.06
GACCGTGTAC	2.07
TCAGGACTTA	0.987
ACACTCGTAT	1.02
CGGCCCTTG	1.01
AAAGGTTCGG	0.97
CTACTTTGAT	1.04
CAGTATGGG	0.985
CCCCTTTCAA	1.05
TGGAAGACGC	1.01
AGGCCTTGAG	1

Sequence	switch fluorescence ratio
TTAGTCGGGT	1.01
GGTGCACGA	0.996
CCTCGTTACG	1.09
ACATTTAATG	0.994
TTCGTACTCT	1.02
CAGCGCTG	1
CTAAACCGGG	1.04
GCGAAGGCCT	1.11
AAATGACTGT	0.93
GGTCATTCGC	1.1
AGCTTAGTGT	0.998
AATCCTGGTT	1.01
TTTGCGGTTG	0.983
TTATTGCAG	0.966
CTCGGACATC	1.29
TTCGACTTAG	0.988
TCGGGGTACC	1.01
TTTTTGGTCA	0.989
CACCAATTAA	1.01
CGATCTTTCG	0.998
ACAGCTAGTG	1.01
GGTGGCACAC	1.05
ATTTTCGGGA	0.993
TGCATCTAGG	0.994
TTAGGGGCCG	1.01
CCTAACAGGC	1

Sequence	switch fluorescence ratio
ACCAAGCGCC	1.04
GTGAATTGTC	1.19
ACACTGGAT	1
TTAGAGGTA	0.965
AGAAACAAGT	0.985
TGTAGGAGGC	0.964
GATAAGTCTG	1.34
TCTCACTAGT	0.993
GGTGGTGCCG	0.919
TTGACTTGGC	0.955
AGTTGTAATT	1.02
CAGCAATAAA	3.79
CGGGCTCAGA	0.934
AACCGGCTCA	1.04
CGTAGTCTTG	0.957
GTGTGTCATT	1.01
CAAAGTAGGA	1
ATAGGGTGAA	1.04
TATTGTCCTA	1.03
TCAAGCGCGG	1.03
GCGGGTATTT	0.987
GGCCGGTGCT	1.02
TCACAACT	1.05
CATACGCTTA	3.12
CTCGAATGTG	1
AGAAGCCCAG	1.02

Sequence	switch fluorescence ratio
ATCGAGCTAT	1.07
ATGTGACTCA	0.954
ATGTGAATGG	0.967
TCGGGGGAAC	1.18
TATTATGAAC	0.979
AGGTAAGGGG	0.997
TAAAGTATTA	0.984
CGTCCCTTGG	1.11
GACTCTGCCG	1.06
TTTCAGGGAT	0.985
AAACTGGTAA	1.04
GGATCTATG	1.01
GGCATCCCGC	0.998
TCAGGTATTA	0.976
GGCTCATGAT	1.03
TTGCATGGT	1.02
TCGCGGGTTA	1.01
CAACACTTGC	1.08
TTCTAGGGAT	0.998
